Measured values from PubChem BioAssay AID686978 (National Center for Advancing Translational Sciences (NCATS), 2013).
Several values for one entry are separate records, joined by “and”; a condition that tells them apart may be missing. Equal values may be shown once. Hit rate of the full screen: of about 420,000 compounds, about 64,000 (15%) were called active. This list was built around the results that the source calls inconclusive (neither active nor inactive); the mix of calls is not that of the screen. The call rests on the fitted dose curve; in most records, active means well fitted inhibition curve with a large enough effect; inconclusive means small, poorly fitted or top-dose-only effect; inactive means flat fitted curve, though single readings scatter. A potency beside an inconclusive call is a rough fit, not a confirmed value.

assay: qHTS for Inhibitors of human tyrosyl-DNA phosphodiesterase 1 (TDP1): qHTS in cells in absence of CPT; details: DT40 Tdp1-/- hTDP1 cells, no CPT, ATP luminescence, 48 h; activity change, negative = growth inhibition: at 46.2 µM (top of the series) unless noted; further: nearly all actives have a fitted effect of over 55% in size
Outline: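 No-CPT arm: Tdp1-/-;hTDP1 DT40 cells (400/well) plus compounds, incubated ≥48 hr at 37 °C. Readout CellTiter-Glo luminescence.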
On the % scale 0 is the no-effect control and ±100 the full control effect; potency means the concentration at half of the fitted maximal effect; tags describe the fitted curve by direction and shape.

Structure (SMILES)	Potency	activity change, negative = growth inhibition
COc1ccc(C(=O)c2cnc3cc4c(cc3c2C)OCO4)cc1	inconclusive: 29.1 µM [inhibitor, single point]	
COC(=O)N1CCC2(CCCN(Cc3cc(C(F)(F)F)cc(C(F)(F)F)c3)C2)CC1		inactive: 1.21%
Cn1c2c(c3ccccc31)CCN(CCCCN1CCN(c3ccccc3)CC1)C2=O	inconclusive: 20.6 µM [inhibitor, single point]	
COc1ccc(C2CC2/C(=N/OC(=O)c2cccs2)c2ccccc2)cc1 (stereo unspecified)		inactive: -22.3%
N#CC1=C2N=C(N)c3c(sc4c3CCCCC4)N2C2=C(C(=O)CCC2)C1c1ccccc1 (stereo unspecified)	inconclusive: 23.1 µM [inhibitor, single point]	
COc1ccccc1OCCNC(=O)C1CCCCC1		inconclusive: -32.4% [inhibitor]
O=c1c2cnn(-c3ccccc3)c2ncn1CCc1ccccc1	inconclusive: 23.1 µM [inhibitor, single point]	
Cc1csc2nc(COC(=O)c3ccc(F)cc3)cc(=O)n12	active: 16.4 µM	
COc1ccc(CCNC(=O)Cn2cc(C(F)(F)F)cc(Cl)c2=O)cc1		inactive: -24%
O=c1[nH]c(Cl)nc2c1ncn2C1OC(CO)C(O)C1O (stereo unspecified)		inactive: 5.7%
O=C(NCCC1=CCCCC1)C1CCN(c2nc3ccccc3o2)CC1		inactive: -29.3%
CC(C)N(Cc1ccccc1)C(=O)COc1ccccc1	inconclusive: 23.1 µM [inhibitor, single point]	
Cc1cc(C)cc(-n2nnnc2SCC(=O)Nc2cccc(NC(=O)c3ccco3)c2)c1	inconclusive: 29.1 µM [inhibitor, single point]	
COCOCCn1cc(CN2CCS(=O)(=O)N(Cc3ccc(-c4ccc(Cl)c(Cl)c4)cc3)C(C)C2=O)nn1 (stereo unspecified)	active: 4.11 µM	
CCOc1ccccc1CNC(=O)Cn1c(=O)oc2ccccc21	inconclusive: 25.9 µM [inhibitor, single point]	
O=C(N/N=C\c1ccccc1)c1ccccc1-n1cccc1	inconclusive: 14.6 µM [inhibitor, single point]	
COC(=O)c1ccc(NC(=S)Nc2ccccn2)cc1	inconclusive: 23.1 µM [inhibitor, single point]	
CCc1ccc(C2=CC(c3cccc(C)c3)n3c(nc4ccccc43)N2)cc1 (stereo unspecified)	active: 2.59 µM	
O=C(Nc1nc(-c2ccccc2)cs1)c1ccc(Br)o1	inconclusive: 23.1 µM [inhibitor, partial curve, poor fit]	
Cc1cccc(N(CC(=O)NCc2ccccc2)S(C)(=O)=O)c1C		inactive: -10.5%
CCc1ccc(-c2nc(CN3CCC(C(=O)NCCc4ccc(C)cc4)CC3)c(C)o2)cc1	inconclusive: 10.3 µM [inhibitor, partial curve]	
CCn1c(SCC(=O)N/N=C/C=C/c2ccco2)nnc1-c1ccc(OC)cc1	inconclusive: 14.6 µM [inhibitor, single point]	
Cc1nnc(N2CCC(C(=O)NCCc3ccccc3)CC2)c2nn(-c3ccccc3)c(C)c12	active: 25.9 µM	
CC(C)(C)c1ccc(-c2noc(CCC(=O)NCC3CCCO3)n2)cc1 (stereo unspecified)	inconclusive: 16.4 µM [inhibitor, single point]	

Structure (SMILES)	Potency	activity change, negative = growth inhibition
COc1ccc(CNC(=O)CSCc2nc(-c3ccccc3F)oc2C)cc1	inconclusive: 29.1 µM [inhibitor, single point]	
O=C(N[C@@H]1C/C=C\C[C@@H](CC(=O)N(CCO)Cc2ccccc2)C(=O)NC[C@H](c2ccccc2)OC1=O)OCC1c2ccccc2-c2ccccc21	active: 7.31 µM	
O=[N+]([O-])c1ncccc1OCc1ccccc1Br	inconclusive: 20.6 µM [inhibitor, single point]	
OC(COc1ccccc1F)CN1CCC(Cc2ccccc2)CC1 (stereo unspecified)	inconclusive: 20.6 µM [inhibitor, single point]	
COc1ccc(Cc2noc(CN3CCCN(Cc4ccc(F)cc4)CC3)n2)cc1OC	inconclusive: 20.6 µM [inhibitor, partial curve, poor fit]	
COc1ccc(NC(=O)CN(C)C(=O)CSCC(=O)Nc2ccc(C)cc2)cc1	inconclusive: 16.4 µM [inhibitor, single point]	
CC(=O)c1cccc(NC(=O)C(C)OC(=O)CCC2CCCCC2)c1 (stereo unspecified)	inconclusive: 18.4 µM [inhibitor, single point]	
O=C(Cc1ccsc1)Nc1ccc2c(c1)OCO2		inactive: -22.1%
O=c1[nH]c(-c2ccc(Cl)cc2)nc(=S)[nH]1		inactive: -4.57%
C=CCn1c(SCC(=O)N2CCc3ccccc3C2)nc2sc(C)cc2c1=O	active: 25.9 µM	
CCCc1ccc(S(=O)(=O)N2CCN(C(C)C(=O)NC3CCCC3)CC2)cc1 (stereo unspecified)	inconclusive: 29.1 µM [inhibitor, single point]	
COc1cccc(N2CCN(C(=O)c3oc4ccccc4c3NC(=O)CCc3cc(OC)no3)CC2)c1	inconclusive: 18.4 µM [inhibitor, single point]	
CC(=O)C1=C(O)C(=O)N(c2cccnc2)C1c1cccc([N+](=O)[O-])c1 (stereo unspecified)		inconclusive: -37.4% [inhibitor]
COc1cccc(/C=C/C(=O)N2CCN(c3n[nH]c(=O)[nH]c3=O)CC2)c1OC		inactive: 5.75%
c1coc(CN(Cc2cccs2)Cc2nnnn2C2CCCCC2)c1	inconclusive: 29.1 µM [inhibitor, single point]	
Cc1ccc(NC(=O)CN(C)c2ccc(S(=O)(=O)N3CCN(C)CC3)cn2)cc1	inconclusive: 23.1 µM [inhibitor, partial curve, poor fit]	
Clc1ncc(CN2CCN(Cc3ccccc3)CC2)s1		inactive: 11.3%
Oc1ccc(C2C=C(c3ccc(F)cc3)Nc3ncnn32)cc1 (stereo unspecified)		inactive: 3.7%
CCOc1ccc2nc(NC(=O)C3CCCN(S(=O)(=O)c4cccs4)C3)sc2c1 (stereo unspecified)	inconclusive: 29.1 µM [inhibitor, single point]	
CCOc1ccc(NC(=O)CN(C)C(=O)c2ccc(C)o2)cc1OCC		inactive: -13.2%
CCc1cc(=O)oc2c3c(cc(OCC(=O)NCc4ccncc4)c12)OC(C)(C)CC3	active: 20.6 µM	
CCN(CC)S(=O)(=O)c1ccc(NC(=O)CN(c2cccc(F)c2)S(C)(=O)=O)cc1		inactive: -17.4%
O=c1c(-c2ccc(F)c(F)c2)nc2cncnc2n1Cc1ccccc1	inconclusive: 29.1 µM [inhibitor, partial curve, poor fit]	
COc1ccc(N2CCN(C(c3ccccc3)c3nnnn3Cc3ccc(F)cc3)CC2)cc1 (stereo unspecified)	inconclusive: 23.1 µM [inhibitor, single point]	

Structure (SMILES)	Potency	activity change, negative = growth inhibition
Cc1nnc(-c2cnn(C)c2N)n1CCCN1CCOCC1		inactive: -28.2%
Clc1ccc(-c2ccc(CNCC3CCCO3)o2)cc1 (stereo unspecified)	inconclusive: 18.4 µM [inhibitor, partial curve, poor fit]	
CCc1cc(C(=O)NNC(=S)NCc2ccccc2)cs1	inconclusive: 29.1 µM [inhibitor, single point]	
CCCN1CNc2c(c(=O)[nH]c(=S)n2CCC(C)C)C1	inconclusive: 35.5 µM [inhibitor, single point]	
Nc1ccc(C(=O)OCC(=O)Nc2ccc([N+](=O)[O-])cc2C(F)(F)F)cc1	inconclusive: 16.4 µM [inhibitor, partial curve]	
CCOC(=O)C(=O)Nc1cc([N+](=O)[O-])ccc1C		inactive: 1.37%
O=C(CC(C(=O)O)c1ccc(Cl)cc1Cl)c1ccc(Cl)cc1 (stereo unspecified)		inactive: 12.6%
O=C(Nc1ccc(NC(=O)c2ccccc2O)cc1)Nc1ccc(F)cc1F		inactive: -21%
O=C1C(=Cc2cccc(O)c2O)SC(=S)N1CCCN1CCOCC1	active: 14.6 µM	
C/C(=N\NS(=O)(=O)c1ccccc1)c1cc(Cl)cc(Cl)c1O	inconclusive: 18.4 µM [inhibitor, partial curve]	
Cc1ccccc1OCCn1cc(C(=O)C2CCCCC2)c2ccccc21	inconclusive: 1.3 µM [inhibitor, full curve, poor fit]	
CSc1cccc(NC(=S)NCCCN2CCN(c3ccc(F)cc3)CC2)c1		inactive: 3.91%
CCCCN(C)CC(O)Cn1cc(/C=C/C(=O)c2cccs2)c2ccccc21 (stereo unspecified)	inconclusive: 20.6 µM [inhibitor, single point]	
CCC(=O)N1c2ccccc2CC1C(=O)NCCc1ccc(SC)cc1 (stereo unspecified)	inconclusive: 25.9 µM [inhibitor, single point]	
COc1ccc(NCC(=O)n2c(C)c(C)c3ccccc32)cc1OC	inconclusive: 23.1 µM [inhibitor, partial curve]	
CCOC(=O)C[C@H]1c2ccc(C(F)(F)F)cc2S(=O)(=O)N1C1CCCC1	inconclusive: 14.1 µM [inhibitor, partial curve] and inconclusive: 16.4 µM [inhibitor, single point]	
Cc1ccccc1C(=O)NC(C)C1CC2CCC1C2 (stereo unspecified)	inconclusive: 29.1 µM [inhibitor, single point]	
O=C(O)c1cccc(Nc2ccncc2[N+](=O)[O-])c1	active: 18.4 µM	
Cc1cc(-c2c(C(=O)N3CCOCC3)c(C)nn2-c2ccccc2)no1		inactive: -6.65%
CCCN1CC=C2C(C#N)=C(N)C(C#N)(C#N)C(c3cccc(OC)c3OC)C2C1 (stereo unspecified)	inconclusive: 29.1 µM [inhibitor, single point]	
CCOc1cc(/C=C2/SC(=O)N(CC(=O)N3CCc4ccccc4C3)C2=O)ccc1OCC(=O)O		inactive: -1.99%
CCOC(=O)C1=C(CC)Nc2ccccc2N=C1NC(=O)c1ccc(OC)c(S(=O)(=O)N2CCOCC2)c1	inconclusive: 25.9 µM [inhibitor, single point]	
Cc1ccc(-c2ccc(=O)n(CCC(=O)N3CCN(c4ccccc4)CC3)n2)cc1	inconclusive: 25.9 µM [inhibitor, single point]	
